Test results as given in PubChem BioAssay AID504339 (National Center for Advancing Translational Sciences (NCATS), 2011).
Among all 390,000 compounds or so, about 17,000 (4.4%) were called active. Inconclusive results, whose numbers are uncertain, are shown with a selection of clear calls. Calls come from the whole dose curve; as a rule, active = well fitted inhibition curve with a large enough effect; inconclusive = small, poorly fitted or top-dose-only effect; inactive = no such curve, though single readings can be large or run the other way. Potencies of inconclusive entries are doubtful fits and often do not repeat.

target: Lysine-specific demethylase 4A (Homo sapiens) (UniProt O75164); assay: qHTS Assay for Inhibitors of JMJD2A-Tudor Domain; conditions: AlphaScreen JMJD2A-Tudor / H3K4me3 peptide binding; activity change, negative = inhibition: at 114 µM (top of the series); note: nearly all actives have a fitted effect of over 50% in size
Sequence of UniProt O75164 (O75164 whole entry, looked up, the tested form may be a part): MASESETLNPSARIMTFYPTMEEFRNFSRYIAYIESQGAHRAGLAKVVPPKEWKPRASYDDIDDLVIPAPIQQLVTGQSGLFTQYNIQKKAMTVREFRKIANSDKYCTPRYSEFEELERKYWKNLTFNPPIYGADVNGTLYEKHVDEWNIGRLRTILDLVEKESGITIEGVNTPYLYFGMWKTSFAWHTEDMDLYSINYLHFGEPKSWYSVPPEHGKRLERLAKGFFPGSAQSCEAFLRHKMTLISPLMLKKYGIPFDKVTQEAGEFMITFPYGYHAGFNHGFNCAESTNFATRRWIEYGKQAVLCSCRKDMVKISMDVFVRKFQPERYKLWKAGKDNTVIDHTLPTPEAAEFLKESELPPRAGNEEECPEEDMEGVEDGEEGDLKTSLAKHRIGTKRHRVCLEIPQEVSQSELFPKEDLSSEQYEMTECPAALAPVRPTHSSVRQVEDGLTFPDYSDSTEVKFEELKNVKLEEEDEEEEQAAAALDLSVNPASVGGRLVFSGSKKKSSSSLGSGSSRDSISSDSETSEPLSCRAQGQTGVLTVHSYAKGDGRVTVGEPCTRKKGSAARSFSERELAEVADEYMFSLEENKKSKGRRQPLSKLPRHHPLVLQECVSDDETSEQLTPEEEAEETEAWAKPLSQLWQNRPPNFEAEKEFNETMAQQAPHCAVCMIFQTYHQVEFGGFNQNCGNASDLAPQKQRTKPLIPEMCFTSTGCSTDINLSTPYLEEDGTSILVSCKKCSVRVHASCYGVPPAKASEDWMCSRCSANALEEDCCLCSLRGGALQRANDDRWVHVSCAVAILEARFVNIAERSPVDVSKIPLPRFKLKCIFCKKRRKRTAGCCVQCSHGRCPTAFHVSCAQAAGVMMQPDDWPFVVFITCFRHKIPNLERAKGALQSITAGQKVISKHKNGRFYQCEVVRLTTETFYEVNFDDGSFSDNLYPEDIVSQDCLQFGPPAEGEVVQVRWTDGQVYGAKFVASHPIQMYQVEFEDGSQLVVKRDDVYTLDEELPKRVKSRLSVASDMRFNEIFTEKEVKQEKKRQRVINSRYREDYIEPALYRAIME
% is set by controls: 0 for no effect and ±100 for the full control effect; potency is the fitted concentration of half-maximal effect; tags give direction and shape of the fitted curve.

| Compound | Potency | activity change, negative = inhibition |
| --- | --- | --- |
| O=C(/C=C/c1ccccc1)c1ccc(NC2=NCCCS2)cc1 | inconclusive: 50.1 µM [inhibitor, partial curve] | – |
| CCN(CC)CCN1C(=O)C(O)=C(C(=O)c2ccco2)C1c1ccccn1 (stereo not drawn) | active: 89.1 µM | – |
| O=C(CCN1C(=O)COc2ccccc21)NCCN1CCc2ccccc2C1 | inconclusive: 89.1 µM [inhibitor, single point] | – |
| Cc1ccc(S(=O)(=O)Nn2c(C)nnc2-n2nc(C)cc2C)cc1 | active: 50.1 µM | – |
| CCOC(=O)c1ccc(N=c2ssnc2Cl)cc1 | active: 14.1 µM | – |
| NC(=S)N/N=C/c1ccc2cccc(OCc3ccccc3)c2n1 | inconclusive: 89.1 µM [inhibitor, partial curve, poor fit] | – |
| COc1ccc(S(=O)(=O)Cc2ccc(C(=O)NCCCN(C)c3ccccc3)o2)cc1 | inconclusive: 35.5 µM [inhibitor, partial curve] | – |
| CCOC(=O)c1cccc(NC(=O)c2cc3sccc3n2C)c1 | inconclusive: 56.2 µM [inhibitor, partial curve] | – |
| CCN1CCN(c2nnc(-n3cccc3C(=O)Nc3cccc(OC)c3)s2)CC1 | – | inactive: -9.74% |
| COCCNCc1cc(C)n(-c2cc(S(=O)(=O)N3CCOCC3)ccc2N2CCCC2)c1C | active: 5.01 µM | – |
| COc1ccc(CN(Cc2ccccc2)C(=O)c2ccc(NC(C)=O)cc2)cc1COc1ccc(NC(C)=O)cc1 | inconclusive: 44.7 µM [inhibitor, partial curve] | – |
| CCC(Sc1nc2ccccc2c2nc(CCc3c(C)n[nH]c3C)nn12)C(=O)Nc1ccc(OC)cc1 (stereo not drawn) | – | inactive: -18.3% |
| COc1ccc2[nH]c3c(c2c1)CCN1C(=O)C(CC(=O)NCCc2ccccn2)C[C@H](C(=O)N2CCOCC2)[C@@]31CCC1CCCC1 (stereo partly drawn) | inconclusive: 31.6 µM [inhibitor, partial curve] | – |
| Cc1cc(C)cc(Oc2ncnc3c2ncn3Cc2c(Cl)cccc2Cl)c1 | – | inactive: 1.28% |
| N#Cc1c(-c2ccccc2)nc(-c2ccncc2)[nH]c1=O | – | inactive: -8.97% |
| COc1cc(NC(=O)c2cc(OC)c(OC)c(OC)c2)c(OC)cc1NC(=O)CN1CCCCC1 | inconclusive: 79.4 µM [inhibitor, single point] | – |
| Cc1ccc(C)n1-c1ccc(C(=O)NC2CCN(Cc3ccccc3)CC2)cc1 | inconclusive: 63.1 µM [inhibitor, partial curve, poor fit] | – |
| COc1ccccc1-n1nnnc1SCC(=O)N1CCCC1=O | – | inactive: -2.74% |
| CC(C)n1nc(C(=O)Nc2nc3ccc(S(C)(=O)=O)cc3s2)c2ccccc2c1=O | – | inactive: -12.8% |
| CCN(CC(=O)Nc1ccc(OC)cc1)C(=O)Cc1cccs1 | inconclusive: 39.8 µM [inhibitor, partial curve] | – |
| CCn1c(=O)c2c(nc(SCC(=O)N3CCC(C)CC3)n2C)n(C)c1=O | inconclusive: 20 µM [inhibitor, partial curve] | – |
| O=C(C1CC(=O)N(C2CCCCC2)C1)N1CCN(c2ccccc2)CC1 (stereo not drawn) | – | inactive: -33.1% |
| CCOc1ccccc1OCC(=O)Nc1ccc(N2CCCCC2)cc1 | inconclusive: 28.2 µM [inhibitor, full curve, poor fit] | – |

| Compound | Potency | activity change, negative = inhibition |
| --- | --- | --- |
| CC1=Nc2ccccc2/C1=C/c1c(C)[nH]c2ccccc12 | active: 56.2 µM | – |
| CCc1ccc(Nc2nnc(SCC(=O)Nc3sccc3C(N)=O)s2)cc1 | – | inactive: -33.1% |
| COC(=O)c1c(C)sc(-c2c(-c3ccc4c(c3)OCCO4)[nH]c3[nH]c(=O)[nH]c(=O)c23)c1O | active: 50.1 µM | – |
| CCN1C(=O)[C@@H]2[C@@H](c3ccc(SC4CCCCC4)cc3)N3CCC[C@@]3(C(=O)OC)[C@@H]2C1=O | inconclusive: 56.2 µM [inhibitor, partial curve] | – |
| COC(=O)c1ccccc1NC(=O)CSc1nc(N)cc(=O)[nH]1 | inconclusive: 31.6 µM [inhibitor, full curve] | – |
| O=C(O)c1ccccc1NCc1cccs1 | – | inactive: -0.332% |
| CCS(=O)(=O)Nc1cccc(C2=NN(S(=O)(=O)c3ccc(C)cc3)C(c3ccco3)C2)c1 (stereo not drawn) | inconclusive: 20 µM [inhibitor, full curve, poor fit] | – |
| Cc1cccc(NC(=O)c2c(NC(=O)c3ccccc3)sc3c2CCCC3)c1 | active: 79.4 µM | – |
| N#C/C(=C\c1ccc(Cl)s1)C(=O)N1CCN(c2ccccc2)CC1 | inconclusive: 25.1 µM [inhibitor, single point] | – |
| COc1ccc(N2CCN(S(=O)(=O)CCNC(=O)COc3cccc(OC)c3)CC2)cc1 | inactive | – |
| CCN(CC)CCN(C(=O)c1ccc(S(=O)(=O)N2CCCCC2)cc1)c1nc2cc3c(cc2s1)OCO3 | inconclusive: 22.4 µM [inhibitor, full curve] | – |
| CCOC(=O)[C@H]1[C@H]2COc3cc(OC)ccc3[C@@H]2N2C(=O)CN(CC3CCCO3)C(=O)[C@@]12C (stereo partly drawn) | – | inactive: -12.9% |
| O=C(N/N=C/c1ccc(N2CCOCC2)cc1)c1ccccn1 | inconclusive: 89.1 µM [inhibitor, single point] | – |
| Cc1ccc(S(=O)(=O)CNC(=S)c2ccc3ccccc3c2)cc1 | inconclusive: 31.6 µM [inhibitor, partial curve] | – |
| CCN(CC)C(=O)COc1ccc2oc(-c3ccco3)cc(=O)c2c1 | inconclusive: 56.2 µM [inhibitor, partial curve] | – |
| Cc1cccc(Cn2c(SCc3ccc(C(=O)N4CCC(C)CC4)cc3)nc3ccncc32)c1 | inconclusive: 100 µM [inhibitor, partial curve] | – |
| CCOc1ccc(C2C3=C(Nc4nc(N)[nH]c(=O)c42)c2ccccc2C3=O)cc1 (stereo not drawn) | inconclusive: 70.8 µM [inhibitor, partial curve, poor fit] | – |
| O=C(O)c1ccccc1N=Nc1c(O)[nH]c2ccc([N+](=O)[O-])cc12 | inconclusive: 39.8 µM [inhibitor, partial curve] | – |
| Cc1cc(C(=O)COC(=O)CC(NC(N)=O)c2ccc(Cl)cc2)c(C)n1C (stereo not drawn) | inconclusive: 56.2 µM [inhibitor, partial curve] | – |
| C[C@H](CO)N1C[C@H](C)[C@@H](CN(C)Cc2ccc(Cl)c(Cl)c2)Oc2c(NS(=O)(=O)c3cccs3)cccc2C1=O | inconclusive: 63.1 µM [inhibitor, partial curve, poor fit] | – |
| Cc1[nH]c2ccccc2c1C(=O)C(=O)NCCc1c[nH]c2ccccc12 | inconclusive: 56.2 µM [inhibitor, partial curve] | – |
| COc1ccccc1NC(=O)CN1C(=O)CC(c2ccc(C)c(C)c2)=Nc2ccccc21 | inconclusive: 25.1 µM [inhibitor, full curve, poor fit] | – |
| c1ccc(-n2c(SCc3ccncc3)nnc2-c2ccco2)cc1 | inconclusive: 89.1 µM [inhibitor, single point] | – |

| Compound | Potency | activity change, negative = inhibition |
| --- | --- | --- |
| C[n+]1cccc2cccc([O-])c21 | inconclusive: 70.8 µM [inhibitor, partial curve] | – |
| CCCc1c(O)nc(SC2CC(=O)N(c3ccc(OC)cc3)C2=O)[nH]c1=O (stereo not drawn) | inconclusive: 39.8 µM [inhibitor, partial curve] | – |
| Cc1nc2ccccc2c(=O)n1/N=C/c1cc(Br)ccc1O | inconclusive: 56.2 µM [inhibitor, partial curve] | – |
| CCn1c(CC(=O)Nc2ccccc2)n[nH]c1=S | inconclusive: 5.01 µM [inhibitor, full curve, poor fit] | – |
| Cc1ccc(C(=O)OC(C)C(=O)Nc2ccc(Cl)cn2)s1 (stereo not drawn) | – | inactive: 4.25% |
| COc1ccc(CCNC(=O)c2ccc(-n3c(C)cc4c3CCCC4)cc2)cc1OC | – | inactive: -22.1% |
| CCCc1cc(=O)[nH]c(SCc2nc(-c3ccc(C)cc3)no2)n1 | – | inactive: -25% |
| C=C(C)CNC(=S)N/N=C1\CCCCc2ccccc21 | inconclusive: 56.2 µM [inhibitor, partial curve] | – |
| CCN1CCCC1CNC(=O)c1cc(COc2ccc(C)c(C)c2)on1 (stereo not drawn) | inconclusive: 50.1 µM [inhibitor, partial curve, poor fit] | – |
| S=C(Nc1ccccc1)Nc1nccs1 | inconclusive: 22.4 µM [inhibitor, full curve] | – |
| O=C(Nc1cccc2cccnc12)c1cccc2ccccc12 | inactive | – |
| CCc1ccc(C(=O)COC(=O)c2cc([N+](=O)[O-])ccc2NCCO)cc1 | inconclusive: 39.8 µM [inhibitor, full curve] | – |
| CN1CSC2=C(C#N)C(c3cccc(OCc4ccccc4)c3)CC(=O)N2C1 (stereo not drawn) | inconclusive: 44.7 µM [inhibitor, partial curve] | – |
| CC(C)NC(=S)N/N=C1\CCCCC1C1CCCCC1 (stereo not drawn) | inconclusive: 39.8 µM [inhibitor, partial curve] | – |
| CCNS(=O)(=O)c1ccc(NC(=S)NCC2CCCO2)cc1 (stereo not drawn) | inconclusive: 39.8 µM [inhibitor, partial curve] | – |
| COc1cccc(N2CCN(C(=O)c3cc4c(=O)n(Cc5cccs5)ccc4nc3C)CC2)c1 | inconclusive: 56.2 µM [inhibitor, partial curve] | – |
| O=C(NNc1cccc(Cl)c1)c1cccnc1Cl | – | inactive: 0.68% |
| O=C(CSc1ccc2c(c1)OCCO2)Nc1ncccc1O | active: 50.1 µM | – |
| O=C(c1ccccc1)N1CCN(CC(O)Cn2ccc3ccccc32)CC1 (stereo not drawn) | inconclusive: 63.1 µM [inhibitor, single point] | – |
| Cc1nn(-c2ccccc2)c(OC(=O)c2ccc(F)cc2)c1S(=O)(=O)c1ccccc1 | inconclusive: 89.1 µM [inhibitor, partial curve] | – |
| CCCCC(c1nnnn1Cc1ccco1)N1CCN(C(=O)c2ccco2)CC1 (stereo not drawn) | inconclusive: 79.4 µM [inhibitor, single point] | – |
| CC(=O)c1sc(NC(C)c2ccccc2)nc1C (stereo not drawn) | – | inactive: -4.79% |
